Not every entry of the source has a single result; some have several. This list holds those alone. There may be further records. Values that stand side by side are repeated measurements in other runs, samples, wells, individuals or studies. Marks such as [2022-09] give the month of the run. Additions like (4×) stand for listed records that agree.

The test system of the experiment is K12877-001-R-J1-PDC complex spheroid viability. Kind of experiment: Anticancer human tumor K12877-001-R-J1-PDC patient-derived lung adenocarcinoma cell line growth inhibition [RAS]. The note with it: for viability, T/C: stronger effect = lower value; for IC50: compound alone. From the text: RAS pathway inhibitors in Combinations in Complex Spheroids
A high-throughput screen of multi-cell type tumor spheroids was designed to identify active combinations of RAS pathway inhibitors and targeted small molecules. Complex spheroids include a stromal component modeled by human endothelial cells (HUVEC) and fibroblasts modeled by human mesenchymal stem cells (MSCs). The concentration ranges selected for each drug and investigational agent were based upon clinically achievable concentrations if the clinical Cmax of the agent was known.
Compounds. The drugs and investigational agents: abemaciclib (NSC768073), cobimetinib (NSC768068), divarasib (GDC6063, NSC841802), docetaxel (NSC628503), GDC-1971 (RLY-1971, NSC841576), gemcitabine (NSC613327), inavolisib (NSC800729), ipatasertib (NSC767898), KB-0742 (NSC834161), MRTX-1133 (NSC836407), osimertinib (NSC779217), RMC-4630 (NSC839698), RMC-6236 (NSC851965), RMC-6291 (NSC852671), Ro-3306 (NSC812927), sapanisertib (NSC764658), SN-38 (NSC673596), staurosporine (NSC755774), SY5609 (NSC837396), and tovorafenib (DAY101, NSC766906), were obtained from the National Cancer Institute (NCI) Developmental Therapeutics Program Chemical Repository. The FDA-approved anticancer drug set is available from the NCI Developmental Therapeutics Program. […] The stock solutions were prepared in dimethyl sulfoxide (DMSO, Sigma-Aldrich, St. Louis, MO, cat. D2650) at 800-fold the tested concentration and stored at -70 degrees C prior to their use. All drugs and investigational agents were tested over a range starting from a high concentration at or near the clinical Cmax and decreasing in half-log increments. If the clinical Cmax for an agent had not been determined, the highest concentration tested was 10 microM.
Cell Culture. All cells were maintained in an incubator at 37 degrees C and 5% CO2 with 95% humidity. The PDC lines were cultured according to standard operating procedures established by the NCI PDMR. All PDCs were thawed and cultured in Matrigel-coated flasks prepared with a working solution of 1X Ham's F-12 nutrient mix, without supplementation (Invitrogen, Waltham, MA, cat. 11765054), 100 U/mL penicillin-streptomycin (Invitrogen, cat. 15140122), and 2.5% Matrigel (Corning Inc., Corning, NY, cat. 354248) for the first three passages. The 362531-283-R-J2-PDC and 782815-120-R-J1-PDC lines were cultured in 6C/Colon 1B media, which includes advanced DMEM/F-12 (Thermo Fisher Scientific, cat. 12634028), 10 mM HEPES (Thermo Fisher Scientific, cat. 15630080), 1X GlutaMAX supplement (Thermo Fisher Scientific, cat. 35050061), 0.1 mg/mL primocin (InvivoGen, San Diego, CA, cat. ant-pm-2), 10% defined fetal bovine serum, heat inactivated (HyClone Laboratories Inc., Logan, UT, cat. SH30070.03HI), 50% L-WRN conditioned media (ATCC, cat. CRL-3276), 1.25 mM N-Acetyl-L-cysteine (Sigma-Aldrich, cat. A9165), 10 mM nicotinamide (Sigma-Aldrich, cat. N0636), 1X B-27 supplement (Thermo Fisher Scientific, cat. 17504044), 1X N-2 supplement (Thermo Fisher Scientific, cat. 17502048), 50 ng/mL human EGF (Thermo Fisher Scientific, cat. PHG0311), and 10 microM Y-27632 dihydrochloride (Tocris Bioscience, cat. 1254). The K12877-001-R-J1-PDC line was cultured in 6I media, which includes all 6C/Colon 1B media plus 10 ng/mL human FGF-10 (PeproTech, cat. 100-26), 1 ng/mL human FGF-2 (PeproTech, cat. 100-18B), 1 µM prostaglandin E2 (Tocris Bioscience, cat. 2296), […] hydrocortisone (Sigma-Aldrich, cat. H4001), and […] bovine insulin (Sigma-Aldrich, cat. I6634). The K86415-001-R-J1-PDC line was cultured in 6D media, which includes all 6C/Colon 1B media components minus the L-WRN conditioned media. The 485176-168-R4-J1-PDC was cultured in PANC media, which includes all 6C/Colon 1B media plus 100 ng/mL human FGF-10 (PeproTech, cat. 100-26), 500 nM SB-431542 (Selleckchem, cat. S1067), and 10 nM gastrin (Tocris Bioscience, cat. 3006). […]
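Also: spheroids exposed to agents for one week before readout.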

On to `C=CC(=O)N1CCN(c2nc(OCC3CCCN3C)nc3c(F)c(-c4nc(N)cc(C)c4C(F)(F)F)c(Cl)cc23)C(C)C1` (stereo not given), for which the viability, T/C by setting is: (compound alone 0.01 µM) 82.2%, 73.7% [2024-08] and 84.7, 105, 92.4, 91.5, 101, 96.2, 96.6, 102 (2×), 88.8% [2024-09]; (compound alone 0.0316 µM) 76.7%, 75.4% [2024-08] and 77.2, 83, 82.4, 88.5, 88.8, 94.7, 97.5, 101, 100, 75.8% [2024-09]; (compound alone 1 µM) 75.3%, 66.4% [2024-08] and 75.8, 88.2, 88.7, 78.3, 93.7, 89.8 (2×), 82, 88.6, 83.8% [2024-09].

Take `CC(C)NCC(C(=O)N1CCN(c2ncnc3c2C(C)CC3O)CC1)c1ccc(Cl)cc1` (stereo not given): the IC50 is 5.43 µM, > 10 µM [2024-08] and 6.31 µM, 2.8 µM [2024-09]. Moreover, the viability, T/C (compound alone 0.316 µM) is 95.5%, 115% [2024-08] and 79.1%, 98% [2024-09]. For the same compound, under “compound alone 1 µM”, the viability, T/C is 84.6%, 130% [2024-08] and 88%, 74.1% [2024-09]. Besides, the viability, T/C (compound alone 3.16 µM) was 63.7%, 76.9% [2024-08] and 59.3%, 47.4% [2024-09]. Further, the viability, T/C (compound alone 10 µM) is 34.3%, 58% [2024-08] and 41.8%, 30.8% [2024-09].

For the compound `CCn1c(-c2cc(N3CCN(C)CC3)cnc2C(C)OC)c2c3cc(ccc31)-c1csc(n1)CC(NC(=O)C1CC1C)C(=O)N1CCCC(N1)C(=O)OCC(C)(C)C2` (stereo not given), the viability, T/C (compound alone 0.03 µM) is reported as 91, 93.5, 81.1, 93.9, 92.9, 71.6, 102, 101%.

`CC(C)n1nc(-c2ccc3oc(N)nc3c2)c2c(N)ncnc21`: the viability, T/C was 83.7%, 114% [2024-08] and 86.2%, 94.4% [2024-09] (compound alone 0.001 µM); 98.5%, 113% [2024-08] and 85.5%, 78.2% [2024-09] (compound alone 0.01 µM).

As for `CC1(C)CCC(Nc2ncc(C(F)(F)F)c(-c3c[nH]c4c(P(C)(C)=O)c(C#N)ccc34)n2)CN1` (stereo not given), the viability, T/C reads like this: (compound alone 0.003 µM) 81.2%, 109% [2024-08] and 90.6%, 95.8% [2024-09]; (compound alone 0.00949 µM) 66.8%, 115% [2024-08] and 99.2%, 81.2% [2024-09].

For the compound `NC1c2ccccc2OC12CCN(c1cnc3c(N4CCCc5ncccc54)n[nH]c3n1)CC2` (stereo not given), the viability, T/C is, setting by setting: (compound alone 0.316 µM) 91%, 63.4% [2024-08] and 94.4%, 92.8% [2024-09]; (compound alone 1 µM) 75.2%, 58.5% [2024-08] and 90.9%, 86.3% [2024-09]; (compound alone 3.16 µM) 75.4%, 56.2% [2024-08] and 83.9%, 81.6% [2024-09].

Consider `O=C(c1ccc(F)c(F)c1Nc1ccc(I)cc1F)N1CC(O)([C@@H]2CCCCN2)C1`, for which, for the setting “compound alone 1 µM”, the viability, T/C was 37.9%, 50.1% [2024-08] and 56.9%, 63.3% [2024-09].

Consider `CCc1c2c(nc3ccc(O)cc13)-c1cc3c(c(=O)n1C2)COC(=O)[C@]3(O)CC`, for which the viability, T/C (compound alone 0.003 µM) is 51.6%, 98.8% [2024-08] and 79.2%, 80.7% [2024-09].

As to `Cc1nc(N2CCC3(CC2)COC(C)C3N)c(CO)nc1Sc1ccnc(N)c1Cl` (stereo not given), the viability, T/C (compound alone 0.0316 µM) was 114%, 86.5% [2024-08] and 103%, 111% [2024-09]; the viability, T/C (compound alone 3.16 µM) is 80.2%, 72.1% [2024-08] and 84.6%, 97.4% [2024-09].

For `CC1(O)CCCC1n1c(=O)c(C(F)F)cc2cnc(NC3CCN(S(C)(=O)=O)CC3)nc21` (stereo not given), the IC50 is 683 nM, 4.03 µM [2024-08] and 4.16 µM, 2.67 µM [2024-09]. For the same compound, the viability, T/C (compound alone 0.1 µM) is 75.9%, 120% [2024-08] and 94.3%, 102% [2024-09]. Where the note is “compound alone 0.316 µM”, the viability, T/C was 43.7%, 82% [2024-08] and 77.3%, 67.1% [2024-09]. For the same compound, the viability, T/C (compound alone 1 µM) is 52.5%, 73.6% [2024-08] and 79.1%, 71.3% [2024-09]. Besides, the viability, T/C (compound alone 3.16 µM) was 45.3%, 74% [2024-08] and 67.8%, 59.2% [2024-09].

Consider `CC(Nc1ccc2c(c1)OCCn1cc(N3C(=O)OCC3C(F)F)nc1-2)C(N)=O` (stereo not given), for which the IC50 was 6.42 µM, > 10 µM [2024-08] and 7.83 µM, 3.21 µM [2024-09]. Also, the viability, T/C (compound alone 0.1 µM) is 88.8%, 101% [2024-08] and 70.1%, 83.5% [2024-09]. Also, the viability, T/C (compound alone 0.316 µM) is 92%, 78.4% [2024-08] and 78.5%, 61.7% [2024-09]. In addition, the viability, T/C (compound alone 3.16 µM) was 61%, 89.9% [2024-08] and 60.5%, 53.6% [2024-09]. The viability, T/C (compound alone 10 µM) was 44%, 60.5% [2024-08] and 46.3%, 29.8% [2024-09].

For orientation: viability, T/C means the ratio of treated to control. By IC50 is commonly meant the midpoint of a concentration-inhibition curve.

The values are drawn from PubChem BioAssay AID2060894 (Molecular Pharmacology Branch, DTP, NCI, 2025).
